Assay results published in the supplement of paper PMC7826260.
Some of the results follow. Each Rep nickase domain was tested in vitro on the same pool of single strands (3 µM enzyme, 1 h, 37 °C); shown is the middle of each 90-letter strand. Uncut reads are compared with the no-enzyme pool on a log2 scale; more negative means more cut, near 0 not cut, and no call is made. The scaling is to total reads, so uncut sequences can rise above 0 when many others are cut.

Columns and labels:
Assay in all cases: uncleaved DNA left, log2 of reads against the no-enzyme library (log2 ratio); higher = less cleavage (more negative = more Rep cleavage of the k-mer); sequences stand for … in CTCGTCCG…ACCGGAGA
[1] = tested on: T1, Rep nickase domain of Muscovy duck circovirus
T1 sequence (Rep 1-111, printed without the tag): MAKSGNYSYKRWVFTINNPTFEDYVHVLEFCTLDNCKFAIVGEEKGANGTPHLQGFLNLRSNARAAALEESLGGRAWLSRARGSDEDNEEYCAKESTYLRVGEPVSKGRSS
Method: (§1)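 A pool of 90-nt single-stranded DNAs with seven random bases just before the constant AC of the nick site (name = the seven bases) was cut by 3 µM recombinant His6-SUMO-tagged Rep nickase domain (300 nM DNA, 50 mM HEPES pH 8.0, 50 mM NaCl, 1 mM MnCl2, 1 h, 37 °C, three replicates). Uncut DNA was amplified and sequenced.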

[2] = tested on: T2, Rep nickase domain of banana bunchy top virus
T2 sequence (Rep 1-94, printed without the tag): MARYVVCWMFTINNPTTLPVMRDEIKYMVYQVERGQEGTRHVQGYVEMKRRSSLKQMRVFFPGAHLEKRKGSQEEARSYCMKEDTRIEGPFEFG
Method: as §1

[3] = tested on: T3, Rep nickase domain of cabbage leaf curl virus
T3 sequence (Rep 1-116, printed without the tag): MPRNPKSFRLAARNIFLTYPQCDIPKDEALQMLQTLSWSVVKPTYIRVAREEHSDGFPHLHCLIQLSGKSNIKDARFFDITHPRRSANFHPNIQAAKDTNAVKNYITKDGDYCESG
Method: as §1

[4] = tested on: T4, Rep nickase domain of chickpea chlorotic dwarf virus
T4 sequence (Rep 1-124, printed without the tag): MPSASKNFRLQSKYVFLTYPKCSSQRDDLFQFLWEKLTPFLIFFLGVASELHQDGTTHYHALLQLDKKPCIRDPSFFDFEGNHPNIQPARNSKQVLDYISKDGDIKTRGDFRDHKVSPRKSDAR
Method: as §1

[5] = tested on: T5, Rep nickase domain of faba bean necrotic yellows virus
T5 sequence (Rep 1-98, printed without the tag): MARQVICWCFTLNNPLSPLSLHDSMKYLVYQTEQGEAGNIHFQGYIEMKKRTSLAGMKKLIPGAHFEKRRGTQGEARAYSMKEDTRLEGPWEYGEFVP
Method: as §1

[6] = tested on: T6, Rep nickase domain of maize striate mosaic virus
T6 sequence (Rep 1-117, printed without the tag): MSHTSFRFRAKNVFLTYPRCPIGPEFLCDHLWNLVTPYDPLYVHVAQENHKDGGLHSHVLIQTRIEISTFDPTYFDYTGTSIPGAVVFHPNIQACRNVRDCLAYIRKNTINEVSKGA
Method: as §1

[7] = tested on: T7, Rep nickase domain of porcine circovirus 2
T7 sequence (Rep 2-116, printed without the tag): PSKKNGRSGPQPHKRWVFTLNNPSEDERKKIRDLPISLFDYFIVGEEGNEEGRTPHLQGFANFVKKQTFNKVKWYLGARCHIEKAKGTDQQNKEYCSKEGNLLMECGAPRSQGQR
Method: as §1

[8] = tested on: T8, Rep nickase domain of tomato golden mosaic virus
T8 sequence (Rep 1-124, printed without the tag): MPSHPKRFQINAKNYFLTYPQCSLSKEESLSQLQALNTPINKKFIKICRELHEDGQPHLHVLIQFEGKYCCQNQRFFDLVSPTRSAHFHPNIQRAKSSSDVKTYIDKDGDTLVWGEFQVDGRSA
Method: as §1

[9] = tested on: T9, Rep nickase domain of tomato yellow leaf curl virus
T9 sequence (Rep 1-136, printed without the tag): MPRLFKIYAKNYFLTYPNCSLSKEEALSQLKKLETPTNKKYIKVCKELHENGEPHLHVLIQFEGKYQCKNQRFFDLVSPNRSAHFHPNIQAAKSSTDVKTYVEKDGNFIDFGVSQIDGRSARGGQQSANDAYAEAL
Method: as §1

[10] = tested on: T10, Rep nickase domain of wheat dwarf virus
T10 sequence (Rep 1-137, printed without the tag): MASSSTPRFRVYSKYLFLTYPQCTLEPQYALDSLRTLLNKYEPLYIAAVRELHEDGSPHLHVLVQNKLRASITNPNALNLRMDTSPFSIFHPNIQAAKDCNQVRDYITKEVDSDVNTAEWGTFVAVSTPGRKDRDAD
Method: as §1

Sequence | uncleaved DNA left (log2) [1] | uncleaved DNA left (log2) [2] | uncleaved DNA left (log2) [3] | uncleaved DNA left (log2) [4] | uncleaved DNA left (log2) [5] | uncleaved DNA left (log2) [6] | uncleaved DNA left (log2) [7] | uncleaved DNA left (log2) [8] | uncleaved DNA left (log2) [9] | uncleaved DNA left (log2) [10]
TACTTTA | -0.996 | -0.178 | -0.21 | -2.57 | -0.0498 | -0.42 | -2.76 | -0.128 | 0.0795 | -0.00971
TAACGGC | 0.0378 | 0.0444 | 0.0301 | -0.318 | 0.031 | -0.349 | 0.0306 | 0.0927 | 0.0132 | 0.0887
GTGATGG | 0.0188 | -0.0212 | 0.237 | 0.771 | 0.0442 | 0.798 | -0.0496 | 0.0213 | -0.11 | -0.0722
CCTGTTG | 0.0212 | -0.138 | -0.481 | -0.632 | -0.0715 | -1.26 | -0.00655 | 0.0661 | -0.0414 | -0.121
CCTAAAT | 0.167 | 0.0511 | 0.12 | -0.455 | 0.109 | -0.352 | -0.0563 | 0.0322 | -0.0273 | 0.00946
GAATTGC | 0.0749 | -0.00467 | -0.695 | 0.133 | 0.037 | -0.854 | 0.177 | -0.0248 | 0.0898 | -0.0354
ACTCGTA | -0.052 | -0.00299 | -0.337 | -0.989 | 0.0654 | -0.861 | -0.117 | 0.103 | -0.0887 | -0.0906
TCCTGCG | -0.025 | -0.158 | -0.471 | 1.06 | 0.0076 | 0.354 | -0.00724 | -0.0655 | -0.189 | -0.144
TCAAAGG | 0.00394 | 0.0329 | 0.414 | 1.25 | -0.0689 | 1.26 | 0.0352 | 0.133 | -0.165 | 0.0256
GGTGATC | -0.0719 | 0.00891 | 0.694 | 1.61 | -0.0491 | 2.06 | 0.135 | 0.00546 | 0.0333 | 0.0679
CCCCATC | -0.145 | -0.206 | -0.112 | -0.193 | -0.114 | -0.866 | -0.167 | -0.0538 | -0.0436 | 0.0227
TCATGAC | -0.0011 | -0.0739 | -0.0166 | 0.0635 | -0.00299 | -0.432 | 0.0612 | 0.055 | -0.0076 | -0.0252
AGCTCCA | -0.0641 | -0.0487 | 0.0727 | -0.0928 | -0.0533 | 0.489 | -0.753 | -0.117 | 0.0662 | 0.0203
AAGAAGC | 0.00526 | 0.202 | 0.015 | -0.133 | 0.172 | -0.661 | 0.232 | 0.128 | 0.0715 | 0.0516
ACTCGTT | 0.0971 | -0.109 | -0.282 | -2 | -0.0135 | -0.809 | -1.37 | -0.0702 | -0.0739 | -0.179
CCTAGTC | -0.0447 | -0.0296 | -0.0367 | -0.185 | -0.00626 | -0.869 | 0.0359 | -0.0927 | -0.00389 | -0.0776
GGTTCAT | -0.0606 | 0.00215 | 0.73 | 1.84 | -0.104 | 2.25 | 0.0783 | -0.0401 | 0.0393 | 0.128
CGACACT | -0.000672 | -0.113 | -0.0456 | -0.618 | -0.158 | 0.44 | -0.158 | -0.129 | -0.0709 | 0.033
CGCACCG | 0.0237 | 0.0394 | -0.777 | -0.51 | -0.000697 | -0.918 | 0.101 | -0.087 | -0.093 | -0.186
GGTTCGG | 0.0556 | 0.096 | 0.553 | 1.36 | 0.0561 | 1.82 | 0.188 | 0.133 | 0.044 | 0.0547
CGACTAG | 0.0486 | 0.139 | -0.119 | 0.736 | 0.0519 | 1.43 | 0.116 | 0.0249 | 0.0802 | 0.0627
CGTAACG | 0.00444 | -0.0117 | -0.729 | -0.487 | -0.0797 | -1.18 | 0.192 | -0.0802 | -0.0302 | -0.018
TGACCGT | -0.0924 | -0.0942 | 0.0604 | 0.18 | -0.147 | 0.458 | 0.0809 | -0.0275 | -0.12 | 0.108
TTGCCTG | -0.17 | -0.0362 | -0.287 | -0.517 | 0.0214 | -0.439 | -0.776 | -0.0905 | -0.00672 | 0.0323
AAGGGTC | 0.0465 | 0.123 | 0.264 | 1.36 | 0.0501 | 1.16 | 0.143 | 0.199 | -0.0309 | 0.0816
CTCACTT | -0.131 | -0.244 | -0.112 | -2.39 | -0.274 | -0.666 | -0.521 | -0.233 | -0.158 | -0.0798
ACAGGGT | 0.0491 | 0.0828 | 0.293 | 1.14 | 0.184 | 0.994 | 0.241 | 0.139 | 0.0354 | 0.0949
GGGTCCC | -0.104 | 0.0142 | 0.505 | 1.43 | -0.0867 | 1.89 | 0.103 | -0.0468 | 0.0181 | 0.0982
TAGCTCG | -0.0331 | -0.0252 | -0.568 | -0.661 | 0.0197 | -1.09 | -0.00177 | -0.043 | -0.143 | -0.195
TTTGAAG | 0.219 | 0.0143 | -0.643 | -0.485 | 0.13 | -1.09 | 0.317 | 0.0684 | 0.00356 | -0.0229
